# Data: the supplement of paper PMC11417369
# ± gives the standard deviation of the averaged measurements. The list shows a part of the results.
# Tested on: PfAP2-I AP2 domain 3 (GST-tagged)
# Test: gcPBM binding intensity (ln(normalized median fluorescence intensity)); higher = stronger DNA binding
# How it was run: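 Alexa488 anti-GST antibody, scanned at 488 nm, detected GST-tagged P. falciparum DNA-binding domains that had been expressed in E. coli and incubated for 1 h on an Agilent 4 × 180k array. The array carried primer-extended double-stranded 36-bp intergenic genomic probes and negative controls. Binding intensity is the highest Masliner-normalised natural-log median intensity across replicate spots of either orientation of each probe.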
row,Sequence,gcPBM binding intensity (ln)
1,GAATATTAAATATTATCACACACATAATTATTTCCA [CACACA_site8730],7.88 ± 0.45
2,ATATATATTTATAATCGTACGTACCTAACAATACAA [XGTACX_site4510],8.14 ± 0.61
3,AAATAAAAAAAAGCCTGTACATGTTCATAAATTTTT [XGTACX_site7925],7.59 ± 0.53
4,CTTAAATTAATTTGGGTGCATATATTTGTACACATT [GTGCAC_site9948],10.8 ± 0.53
5,TTCTATTTATATGTGGGTACTAATTTTTTTTCTTTT [XGTACX_site7104],7.73 ± 0.65
6,TGAATAAAATATTATACACACATATGTATATAACAT [CACACA_site974],7.64 ± 0.37
7,TTAATTTTTTTTTAAACACACATTTTTTTATTTAAG [CACACA_site2738],7.41 ± 0.7
8,GTTATAAATAATAAATAAATAATCAAATGAAGAATG [CACACA_negctrl_site653],7.81 ± 0.55
9,TATTAATTTTTTTTTTTTTTTTTTTTTTTTTTTTTT [CACACA_negctrl_site1329],10 ± 0.17
10,AAAAAAAAATTAAAATGTACACATAAAAAAAAAAAA [XGTACX_site794],8.06 ± 0.8
11,AAAAATAAATAAATATGTACATATATACATATATAT [XGTACX_site5892],7.74 ± 0.47
12,TTTTATATGTTATATACACACATATAAATAAATATA [CACACA_site7418],7.78 ± 0.33
13,TAACATATGGGACACACATGCAACTGTTATATGTCC [TGCATGCA_site959],7.6 ± 0.57
14,AGAAAACATATGTTTTGTACTTAAGAAAAAAAAAAA [XGTACX_site4231],7.98 ± 0.86
15,AACAGGTCATAATTTACACACTATATATTTTATTAT [CACACA_site670],7.8 ± 0.75
16,TATATCATATAAAACCGTACATACATACTTAATTGT [XGTACX_site6822],7.8 ± 0.29
17,ATCTATATTCATAATACACACATTCTGTAGCATTAT [CACACA_site7058],8.03 ± 0.52
18,TGATTAATTTTTAAATGTACTTAAAAATATACTTAT [XGTACX_site2872],7.66 ± 0.29
19,ATATATAATATATATTGTACAGGTATGTCTATAAAT [XGTACX_site2243],8.04 ± 0.55
20,GAGAGGTATCAAAAATGTACACATATATATATGTAT [XGTACX_site5611],7.79 ± 0.47
21,TTTTTTCTTTATTATGGTACGTATAAAAAAATTATA [XGTACX_site3433],7.82 ± 0.38
22,TATAAAATTTTTAAAAGTACATATTTTACATAATAC [XGTACX_site2193],7.99 ± 0.32
23,ATTATTCCATATTATTGTACTTTAATTTTTTAAACC [XGTACX_site2960],7.92 ± 0.43

row,Sequence,gcPBM binding intensity (ln)
1,TTTTTATCAACAAATAATACCATAACTCATATTTAT [CACACA_negctrl_site740],7.57 ± 0.56
2,AAAAAAAAAACACGCGCACACACACCCACCCACCCA [CACACA_site8689],8.7 ± 0.98
3,ACTAATAAAGGTGTAATACACACTATAAAAAGGAAT [CACACA_site1124],8.61 ± 0.67
4,TTTATCTAAATATGTGTGCACTCGTTAATTTTTTTT,9.89 ± 0.2
5,TATATAAACCCACCTACACACACAACGTAAATGCAT [CACACA_site8702],8.41 ± 0.4
6,ATTATTATATTCAAATGTACTTAATAAACATTTTAA [XGTACX_site3023],7.79 ± 0.2
7,TGTTGATTTATCCTGTGTACGGATATATATCTTTCA [XGTACX_site7826],7.62 ± 0.54
8,TAAAGAATATTATAAACACACACTTTATAAAGAATT [CACACA_site114],7.79 ± 0.47
9,GTAATTATACATATTACACACTCTCTTGATCTTTTT [CACACA_site7756],7.87 ± 0.69
10,TATATAAAGAAACACACACACACCTTATAATTATTA [CACACA_site4062],7.89 ± 0.26
11,GAAAATAACTAAAATTGTACAAAGAAACATATATTT [XGTACX_site6484],7.97 ± 0.47
12,AGAAAAAAATAATCATCACACACGGAGAATGTCCAA [CACACA_site2314],7.47 ± 0.72
13,TATTAAAGCACCCATGCACACACACTAAGGAAAAGA [CACACA_site7961],11.6 ± 0.71
14,TATATATATCTGTATACACACATACAAATATGTAAA [CACACA_site5950],7.85 ± 0.47
15,GATATTCATTATATATGTACATATATGTAATATATA [XGTACX_site2210],7.71 ± 0.44
16,TAATAATATATAAAAAGTACATAACAAGATATGAAA [XGTACX_site4921],7.72 ± 0.6
17,ATATATTTTTTTTTTTCACACATTAGGATTCATATA [CACACA_site5758],7.75 ± 0.7
18,AAATGGAAAAGGTGTACACAAAAAAAAGGGAAAAGC [CACACA_site5331],8.96 ± 0.75
19,TACATATAAATATATAAATATAAATAAATAAATAAA [XGTACX_negctrl_site180],7.86 ± 0.79
20,TTTTTTTTTTTTTTTGCACACACATTGAATTATTAT [CACACA_site198],9.38 ± 0.45
21,CTTTATATATAGTGTACACATTAAACAAATCTCAAT [CACACA_site5845],8.37 ± 0.39
22,TTACCAAAAACCTCAAGTACAAAAAATCCCTAATAT [XGTACX_site2313],7.8 ± 0.59
23,ATAGTATACAGACACACACACACACGGATATAAATA [CACACA_site6914],7.97 ± 0.49

row,Sequence,gcPBM binding intensity (ln)
1,ATATATATATATATATGTACTAAATATTCATCCTTA [XGTACX_site6039],9.62 ± 0.71
2,TATAAGAGAAGAAGAAAAAAAAGGTTTCTATAGAAA [XGTACX_negctrl_site421],7.42 ± 0.69
3,AAGAAGCATAAATGTACACACATATTTATATATTAA [CACACA_site1332],7.78 ± 0.32
4,CATATAGTAATATATACACACACTTGTCTTGTAAAA [CACACA_site8238],7.66 ± 0.52
5,ATATTTATAATTTTTTGTACACATTTTTTAAAGATA [XGTACX_site1784],8 ± 0.35
6,TTGGTACCTATAGATACACACATATATACATATATA [CACACA_site3402],7.77 ± 0.34
7,TAAGAGTAGTTATATACACACATGTATATTATAGTT [CACACA_site6815],7.53 ± 0.75
8,TATATATATATATTATGTACGTATCAGTTTGTATGT [XGTACX_site695],9.2 ± 0.16
9,TTATAAATTAGAGGTACACACAAAAAAAAAAAGAAA [CACACA_site6740],7.95 ± 0.39
10,CACGACATTAACAATACATGCAGAAAAACAAAAAAT [TGCATGCA_site689],8.24 ± 0.86
11,ATTTTTAATATTATTACACACACTAAAAAAAAAAAA [CACACA_site1067],8.08 ± 0.51
12,AATGGGTTAGCACATACACACCAATATATTATATAT [CACACA_site9011],7.96 ± 0.42
13,ATTTATGATATGTAAACATGCATAAAAATTTCAAAA [TGCATGCA_site858],7.62 ± 0.64
14,TATAAACTTAATTTGAGTACTTAATAATAATTTTGT [XGTACX_site3730],7.38 ± 0.47
15,TATATATGTATATATGGTACAGAATATTCTACATTA [XGTACX_site5077],7.56 ± 0.54
16,TACCACATCGGTAAATGTACTTATAAAAAAAAAAAA [XGTACX_site3364],8.04 ± 0.61
17,CATCCACATATATGTACACACATATATATATATATA [CACACA_site2964],9.29 ± 0.45
18,CAATCATTTTATTGTTGTACAGTAATTATGAATTCA [XGTACX_site7508],7.62 ± 0.38
19,TGTCATGATACATACACACACATACACATACACATA [CACACA_site2135],8.05 ± 0.42
20,AAACAACAAAAATGATATATATAAAATTTATAATAT [XGTACX_negctrl_site185],7.49 ± 0.51
21,TATTTAATTATATAAAATTAAATTTTTAATTCTTCC [CACACA_negctrl_site473],7.28 ± 0.53
22,TATGGATTACACAATTGTACAAGAAAAATGTAAATA [XGTACX_site4040],7.93 ± 0.59
23,ATGCATAAAAGAAATACACACATAAATATATAAATA [CACACA_site2163],7.88 ± 0.47

row,Sequence,gcPBM binding intensity (ln)
1,TCTATTATCCTTTGCACACAAAATAAATGAAAAAAT [CACACA_site3029],8.86 ± 0.014
2,ATATAAGTTTTTTCTCAAAAAGTATAACGAGCATGA [CACACA_negctrl_site1375],7.8 ± 0.52
3,CCCACGTATATTTTGTGTACATAAATAAATAAATAA [XGTACX_site4046],8.79 ± 0.61
4,ACATTATATAAATATATACATATATATATATATAAA [GTGCAC_negctrl_site115],7.53 ± 0.38
5,TTTGATAAATGATACACACACAATATTTATAAAATA [CACACA_site7040],7.74 ± 0.54
6,TCAGAAATATTACAAAGTACATGCAACGAAAATTTC [XGTACX_site5061],7.88 ± 0.89
7,ACACAATGTAGTGTATAAATACAATAAAAGGTTGTA [TGCATGCA_negctrl_site251],7.61 ± 0.68
8,TCTTATAATTTACCTACACACAGGAAATATATAAAT [CACACA_site294],7.84 ± 0.45
9,TGATATTTAAATTTTGCACACGCATATGAAATTAGG [CACACA_site1034],8.91 ± 0.16
10,ATGACGTAGTGGTGTACACACATGGTACCTTTATTC [CACACA_site1547],8.34 ± 0.45
11,AAAAAAATATTCAAAGCATGCCTATTTACACATATT [TGCATGCA_site806],7.6 ± 0.64
12,AAAAAAAAAAAAAAAGTGCATTAATAAATTTTAATA,11.5 ± 0.61
13,ATACGAAAATATTTTGCACACTATAATTATTCATAT [CACACA_site1765],9.67
14,TTTCCCTACCAAAAGTGTACTTATACATATTTTTAT [XGTACX_site5495],7.87 ± 0.67
15,ACATATTATTCTTCTTGTACACATAAATTTTATAAA [XGTACX_site299],8.66 ± 0.4
16,ACATCTATGTATAATACACACACTAATATATAATTG [CACACA_site5134],7.84 ± 0.54
17,TTTTTTTCATAATATACACACAAAAAAAAAAAAAAA [CACACA_site3224],8.12 ± 0.68
18,TATACTCATATATAAACACACAAAAAAAAAAAAAAA [CACACA_site5165],8.04 ± 0.69
19,ATATATATATATATGTGTACATATATATATCATATG [XGTACX_site3126],9.31 ± 0.6
20,TGTGTATATATGCTGGTGCAACTTTAAAAAATAATC,9.52 ± 0.057
